In patent publication US7205333B2 (priority 2000, dated 2007) one finds IC50 data, which are given here for two compounds.

Common to all, as to experiment: Inhibition of cytopathic effect (CPE) of influenza virus replication in MDCK cells
What all share (conditions): read-out: IC50 nM per ZMV equiv

The test system of one assay is A/Sydney/5/97. The protocol: (§1) The trimeric compound of Example 3 was tested for its ability to inhibit the replication of influenza A and influenza B virus, essentially following the standard method described in the literature (see for example Watanabe et al, J. Virological Methods, 1994 48 257). The assay was carried out using MDCK cells and three different influenza virus strains, two influenza A and one influenza B, and the results are shown in Table 1. The results are shown as IC50, the minimum compound concentration which inhibits cytopathic effect by 50% [(μg/ml)], calculated by using a regression analysis program for semi-log curve fitting. […] The therapeutic index for the compounds can be calculated by dividing the minimum cytotoxic drug concentration (MTC) by the ID50.

In a further assay the test system is A/Victoria/3/75. How it is done:
as §1

In the next assay the test system is B/Harbin/7/95. How it is done:
as §1

The structures appear in SMILES notation.

Turning to `CC(=O)N[C@H]1[C@H]([C@H](OC(=O)NCCCCCCN)[C@H](O)CO)OC(C(=O)O)=C[C@@H]1NC(=N)N` [Compound (2) TFA2, 5-acetamido-7-(6-aminohexylcarbamoyloxy)-4-guanidino-2,3,4,5-tetradeoxy-D-glycero-D-galacto-non-2-enopyranosonic acid], the IC50 with A/Sydney/5/97 is 588 nM; with A/Victoria/3/75, 52.7 nM; in the assay on B/Harbin/7/95, 259 nM.

In the case of `CC(=O)N[C@H]1[C@H]([C@H](O)[C@H](O)CO)OC(C(=O)O)=C[C@@H]1NC(=N)N` [Zanamivir, 4-guanidino-2-deoxy-2,3-dehydro-N-acetylneuraminic acid, reference compound], the IC50 is 77.7 nM in the assay on A/Sydney/5/97, 73.9 nM in the assay with A/Victoria/3/75 and 31.2 nM in the assay with B/Harbin/7/95.
